Reference: PubChem BioAssay (NCATS)
Inconclusive means that the source gave no clear call. Such entries were picked first, then a sample of the others. Entries that show only a call come without a potency. For part of these data: Where the call is inconclusive, the potency comes from a doubtful curve fit. Activity calls are given as the source filed them. Unless noted, the call rests on the fitted dose curve; in most records, active means well fitted curve in the direction sought with a large enough effect; inconclusive means small, poorly fitted or top-dose-only effect, or another doubt; inactive means no such curve, though single readings can be large; an effect the other way counts as inactive or inconclusive. Where a SMILES comes first, the peptide text is derived from it. [ ]: non-standard residue; d: D form. pGlu = O=C1CC[C@@H](C(=O)O)N1; Thz = O=C(O)[C@@H]1CSCN1

Assays:
[1] = tested on: HaCat; assay: Cytotoxic Profiling of Annotated Libraries Using Quantitative High-Throughput Screening (AID 1296008); conditions: Five cell lines viability, CellTiter-Glo ATP luminescence, 48-72 h; max response: active compounds read low; further: nearly all actives have a fitted effect of over 60% in size; further: potency means the concentration at half of the fitted maximal effect
Outline: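 Cells exposed to compounds for 48 or 72 hr at 37 degrees Celsius. Viability read as ATP-coupled luminescence with CellTiter-Glo after 10 min at room temperature.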

[2] = tested on: HeLa; assay: Primary qHTS to identify gynecologic anti-cancer compounds using libraries of approved drugs and bioactive compounds (AID 1345084); conditions: Gynecologic cancer cell panel viability, ATPlite luminescence, 48 h; series mostly up to 57.5 µM; further: nearly all actives have a fitted effect of over 55% in size
Outline: (§1)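 Cell viability after 48 h drug treatment, ATPlite luminescence readout; five doses.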

[3] = tested on: CP185; assay: qHTS profiling for inhibitors of Plasmodium falciparum proliferation (AID 504749); further: nearly all actives have a fitted effect of over 60% in size; conditions: P. falciparum in erythrocytes, SYBR Green DNA, 72 h; series mostly up to 28.7 µM
Outline: (§2)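 SYBR Green fluorescence (ex 485 nm, em 535 nm) reports parasite DNA after 72 h compound exposure of infected red cells at 0.3% parasitemia, 2.5% hematocrit; signal normalized to 0.29 uM artemisinin and vehicle wells.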

[4] = tested on: CP192; assay: as above; conditions: P. falciparum in erythrocytes, SYBR Green DNA, 72 h; series mostly up to 28.7 µM
Outline: as §2

[5] = tested on: CP262; assay: as above; conditions: P. falciparum in erythrocytes, SYBR Green DNA, 72 h; series mostly up to 28.7 µM
Outline: as §2

[6] = tested on: CP291; assay: as above; conditions: P. falciparum in erythrocytes, SYBR Green DNA, 72 h; series mostly up to 28.7 µM
Outline: as §2

[7] = tested on: DIV30; assay: as above; conditions: P. falciparum in erythrocytes, SYBR Green DNA, 72 h; series mostly up to 28.7 µM
Outline: as §2

[8] = tested on: N140; assay: as above; conditions: P. falciparum in erythrocytes, SYBR Green DNA, 72 h; series mostly up to 28.7 µM
Outline: as §2

[9] = tested on: W2; assay: as above; conditions: P. falciparum in erythrocytes, SYBR Green DNA, 72 h; activity, negative = inhibition: at 28.7 µM (top of the series)
Outline: as §2

[10] = NS1 protein of Zika virus - qHTS assay to identify small molecule inhibitors in human HEK 293 cells (AID 1347053); further: nearly all actives have a fitted effect of over 55% in size
Outline: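 Read-out is a two-antibody TR-FRET for ZIKV NS1, normalized between uninfected cells and infected cells. Compound added 1 h before MR766 infection at MOI 0.5; human HEK 293 cells incubated 24 h, 37 C.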

[11] = qHTS of pediatric cancer cell lines to identify multiple opportunities for drug repurposing: Primary screen for A673 cells (AID 1347092); conditions: A673 Ewing sarcoma viability, CellTiter-Glo ATP luminescence, 48 h; activity change, negative = cytotoxic: at 46 µM (top of the series); further: nearly all actives have a fitted effect of over 45% in size
Outline: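 Luminescence from CellTiter-Glo, taken after 15 min at room temperature, served as the proxy for metabolically active cells following 48 h treatment. Both potency and efficacy were taken from curves fitted to the titration data.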

[12] = qHTS of pediatric cancer cell lines to identify multiple opportunities for drug repurposing: Primary screen for Rh41 cells (AID 1347108);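 further: luminescence drop marks cytotoxic hits; nearly all actives have a fitted effect of over 70% in size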
Outline: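 Luminescence from CellTiter-Glo served as readout of metabolically active cells after 48 h compound exposure. Titrations: MIPE 11-point, from 0.78 nM; NPC 8-point, from 0.59 nM (final). Concentration-response curves came straight from the primary screen.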

[13] = A High-Content qHTS Against Drug Library for the Identification of Small Molecules that Inhibit DYT1 Early Onset Primary Dystonia-Associated Cell Pathology (AID 1645839; calls by dose curve)
Outline: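 Cells were seeded and left for 24 h, then dosed with compound alongside tetracycline induction of mutant EGFP-TorsinA. They were incubated for 48 h, fixed in 4% paraformaldehyde, permeabilized and imaged for mislocalization (%pathology) and cell count.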

[14] = Primary qHTS for inhibitors of nuclear receptor binding SET domain protein 2 (NSD2) in an isogenic RCH-ACV NSD2 p.E1099K mutant (9B) (AID 1645876); conditions: activity change, negative = viability loss: at 44.9 µM (top of the series) unless noted; further: potency means the concentration at half of the fitted maximal effect; nearly all actives have a fitted effect of over 70% in size
[15] = Primary qHTS for inhibitors of nuclear receptor binding SET domain protein 2 (NSD2) in an RCH-ACV wild type WT cells (2C) (AID 1645877); conditions: activity change, negative = cell killing: at 44.9 µM (top of the series) unless noted; further: nearly all actives have a fitted effect of over 70% in size; further: potency means the concentration at half of the fitted maximal effect
[16] = tested on: OV90; assay: Primary qHTS to identify gynecologic anti-cancer compounds using libraries of approved drugs and bioactive compounds (AID 1345084); conditions: Gynecologic cancer cell panel viability, ATPlite luminescence, 48 h; series mostly up to 57.5 µM; further: nearly all actives have a fitted effect of over 55% in size
Outline: as §1

[17] = tested on: Zika virus NS2B-NS3 protease (linked construct); assay: Primary screen NINDS Rhodamine qHTS for Zika virus inhibitors (AID 1347160); further: nearly all actives have a fitted effect of over 55% in size
Outline: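 Rhodamine110-peptide cleavage (1.5 µM substrate) by 25 nM linked NS2B-NS3 enzyme at pH 8.0 (Tris, Tween 20), after 15 min RT preincubation with compounds; 15-min fluorescence change normalized to controls and Hill-fitted.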

[18] = biological target: Cytochrome P450 3A4 (Homo sapiens) (UniProt P08684); assay: Cytochrome P450 family 3 subfamily A member 4 (CYP3A4) small molecule antagonists: luciferase qHTS assay (AID 1645841; active means well fitted curve in the direction sought with a large enough effect in the repeat runs; inconclusive means weak or mixed curves; inactive means no such curve, though single readings can be large; an effect the other way counts as inactive or inconclusive; further: potency means the concentration at half of the fitted maximal effect; nearly all actives have a fitted effect of over 45% in size)
UniProt P08684, sequence (P08684 whole entry, looked up): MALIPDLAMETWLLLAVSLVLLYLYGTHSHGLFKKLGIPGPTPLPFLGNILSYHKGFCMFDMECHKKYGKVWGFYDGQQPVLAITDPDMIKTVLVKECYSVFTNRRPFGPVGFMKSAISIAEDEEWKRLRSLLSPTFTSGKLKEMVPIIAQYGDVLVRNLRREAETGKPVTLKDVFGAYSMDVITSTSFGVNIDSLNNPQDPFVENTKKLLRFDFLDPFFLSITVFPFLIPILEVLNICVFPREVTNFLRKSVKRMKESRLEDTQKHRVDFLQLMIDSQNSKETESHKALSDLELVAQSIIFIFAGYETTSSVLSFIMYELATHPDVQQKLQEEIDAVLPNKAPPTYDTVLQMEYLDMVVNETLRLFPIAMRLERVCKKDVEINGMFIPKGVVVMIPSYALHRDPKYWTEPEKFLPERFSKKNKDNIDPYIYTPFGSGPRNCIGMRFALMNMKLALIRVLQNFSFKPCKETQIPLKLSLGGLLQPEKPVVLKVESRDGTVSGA
Outline: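 P450-Glo CYP3A4 enzyme with proluciferin substrate preincubated 10 min with compound at room temperature, then NADPH regeneration 1 h. Luciferin detection reagent added for 20 min; luminescence recorded. Ketoconazole positive control.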

[19] = tested on: Es-2; assay: Primary qHTS to identify gynecologic anti-cancer compounds using libraries of approved drugs and bioactive compounds (AID 1345084); conditions: Gynecologic cancer cell panel viability, ATPlite luminescence, 48 h; series mostly up to 57.5 µM; further: nearly all actives have a fitted effect of over 55% in size
Outline: as §1

[20] = tested on: Tov-21-G; assay: as above; conditions: Gynecologic cancer cell panel viability, ATPlite luminescence, 48 h; series mostly up to 57.5 µM
Outline: as §1

[21] = Primary redox qHTS assay for identification of artifact compounds. (AID 1845223)
Outline: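 Redox-cycling detection via DTT (250 uM final) oxidation coupled to Amplex Red (25 uM)/HRP (250 mU/mL) in HBSS. 15 min preincubation plus 30 min after DTT, room temperature. Ex/Em 525/598 nm; 4-parameter Hill fit against DMSO and 10 uM DA3003.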

[22] = tested on: PA-1; assay: Primary qHTS to identify gynecologic anti-cancer compounds using libraries of approved drugs and bioactive compounds (AID 1345084); conditions: Gynecologic cancer cell panel viability, ATPlite luminescence, 48 h; series mostly up to 57.5 µM; further: nearly all actives have a fitted effect of over 55% in size
Outline: as §1

[23] = tested on: SKOV3; assay: as above; conditions: Gynecologic cancer cell panel viability, ATPlite luminescence, 48 h; series mostly up to 57.5 µM
Outline: as §1

[24] = tested on: Nanoluciferase (engineered Oplophorus gracilirostris luciferase); assay: Primary Nanoluciferase (NLuc) qHTS assay for identification of artifact compounds. (AID 1845222);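 further: NLuc secreted into diluted conditioned medium of S16 cells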
Outline: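 qHTS format, against NLuc in S16 cell-conditioned medium. Nano-Glo substrate 1:100 was added after 15 min at room temperature. Luminescence was taken after a further 5 min.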
Tags describe the fitted curve by direction and shape.

O=C1CC[C@@H](C(=O)N2CSC[C@H]2C(=O)O)N1 ([pGlu]-[Thz]-OH)
max response [1]: inactive: 2.27% | Potency [2]: inactive | Potency [3]: inactive | Potency [4]: inactive | Potency [5]: inactive | Potency [6]: inactive | Potency [7]: inactive | Potency [8]: inactive | Potency [9]: inactive

CCNC(=O)[C@@H]1CCCN1C(=O)[C@H](CCCN=C(N)N)NC(=O)[C@H](CC(C)C)NC(=O)CNC(=O)[C@H](Cc1ccc(O)cc1)NC(=O)[C@H](CO)NC(=O)[C@H](Cc1c[nH]c2ccccc12)NC(=O)[C@H](Cc1cnc[nH]1)NC(=O)[C@@H]1CCC(=O)N1 ([pGlu]HWSYGLRP-NHEt)
Potency [10]: inactive | Potency [11]: inactive | Potency [12]: inactive | Potency [13]: inactive | Potency [14]: inconclusive: 4.73 µM [inhibitor, single point] | Potency [15]: inactive | Potency [1]: inconclusive: 5.96 µM [inhibitor, full curve, poor fit] | Potency [16]: inactive

CNS(=O)(=O)CC1CCC(N(C)c2ncnc3[nH]ccc23)CC1 (stereo unspecified)
Potency [17]: inactive | Potency [18]: inconclusive: 19 µM [falling, single point] | Potency [14]: inconclusive: 18.3 µM [inhibitor, single point] | Potency [15]: inconclusive: 11.5 µM [inhibitor, partial curve] | Potency [1]: inconclusive: 16.4 µM [inhibitor, partial curve] | Potency [19]: inactive

CCC[C@@H]1C[C@@H](C(=O)N[C@H](C(C)Cl)[C@H]2O[C@H](SC)[C@H](O)[C@@H](O)[C@H]2O)N(C)C1 (stereo partly specified)
max response [1]: inactive: 1.16% | Potency [2]: inactive | Potency [20]: inactive

CC(=O)O[C@H]1C[C@@]2(C)[C@@H](CC[C@H]3[C@@]4(C)C=CC(=O)[C@@H](C)[C@@H]4[C@H](O)C(=O)[C@@]32C)/C1=C(/CCC=C(C)C)C(=O)O
Potency [14]: inconclusive: 11.2 µM [inhibitor, partial curve, poor fit] | Potency [15]: inconclusive: 5.63 µM [inhibitor, partial curve, poor fit] | Potency [21]: inactive | Potency [1]: inconclusive: 0.0126 µM [inhibitor, full curve] | Potency [16]: inactive | Potency [22]: inactive | Potency [23]: inactive

COC(=O)[C@H](CC1C=NC=N1)NCC12CC3CC(CC(C3)C1)C2 (stereo partly specified)
Potency [24]: inactive | outcome [1]: inactive | Potency [2]: inactive
